Laboratory results reported in PubChem BioAssay AID1347165 (National Center for Advancing Translational Sciences (NCATS), 2019).
Among all 220,000 compounds or so, about 5,700 (2.6%) were called active. The shares of active, inactive and inconclusive entries below differ from those in the screen. Calls follow the shape of the dose curve; as a rule, active = well fitted inhibition curve with a large enough effect; inconclusive = small, poorly fitted or top-dose-only effect; inactive = no such curve, though single readings can be large or run the other way. A potency beside an inconclusive call is a rough fit, not a confirmed value.

Each compound was assayed against Lysine-specific demethylase 5B (Homo sapiens) (UniProt Q9UGL1) (assay: Primary screen for KDM5B Histone Demethylases FDH-coupled qHTS). Conditions: FDH-coupled NADH fluorescence (FDH is formaldehyde dehydrogenase); activity change, negative = inhibition: at 57.7 µM (top of the series) unless noted.
Sequence of UniProt Q9UGL1 (Q9UGL1 whole entry, looked up, the tested form may be a part): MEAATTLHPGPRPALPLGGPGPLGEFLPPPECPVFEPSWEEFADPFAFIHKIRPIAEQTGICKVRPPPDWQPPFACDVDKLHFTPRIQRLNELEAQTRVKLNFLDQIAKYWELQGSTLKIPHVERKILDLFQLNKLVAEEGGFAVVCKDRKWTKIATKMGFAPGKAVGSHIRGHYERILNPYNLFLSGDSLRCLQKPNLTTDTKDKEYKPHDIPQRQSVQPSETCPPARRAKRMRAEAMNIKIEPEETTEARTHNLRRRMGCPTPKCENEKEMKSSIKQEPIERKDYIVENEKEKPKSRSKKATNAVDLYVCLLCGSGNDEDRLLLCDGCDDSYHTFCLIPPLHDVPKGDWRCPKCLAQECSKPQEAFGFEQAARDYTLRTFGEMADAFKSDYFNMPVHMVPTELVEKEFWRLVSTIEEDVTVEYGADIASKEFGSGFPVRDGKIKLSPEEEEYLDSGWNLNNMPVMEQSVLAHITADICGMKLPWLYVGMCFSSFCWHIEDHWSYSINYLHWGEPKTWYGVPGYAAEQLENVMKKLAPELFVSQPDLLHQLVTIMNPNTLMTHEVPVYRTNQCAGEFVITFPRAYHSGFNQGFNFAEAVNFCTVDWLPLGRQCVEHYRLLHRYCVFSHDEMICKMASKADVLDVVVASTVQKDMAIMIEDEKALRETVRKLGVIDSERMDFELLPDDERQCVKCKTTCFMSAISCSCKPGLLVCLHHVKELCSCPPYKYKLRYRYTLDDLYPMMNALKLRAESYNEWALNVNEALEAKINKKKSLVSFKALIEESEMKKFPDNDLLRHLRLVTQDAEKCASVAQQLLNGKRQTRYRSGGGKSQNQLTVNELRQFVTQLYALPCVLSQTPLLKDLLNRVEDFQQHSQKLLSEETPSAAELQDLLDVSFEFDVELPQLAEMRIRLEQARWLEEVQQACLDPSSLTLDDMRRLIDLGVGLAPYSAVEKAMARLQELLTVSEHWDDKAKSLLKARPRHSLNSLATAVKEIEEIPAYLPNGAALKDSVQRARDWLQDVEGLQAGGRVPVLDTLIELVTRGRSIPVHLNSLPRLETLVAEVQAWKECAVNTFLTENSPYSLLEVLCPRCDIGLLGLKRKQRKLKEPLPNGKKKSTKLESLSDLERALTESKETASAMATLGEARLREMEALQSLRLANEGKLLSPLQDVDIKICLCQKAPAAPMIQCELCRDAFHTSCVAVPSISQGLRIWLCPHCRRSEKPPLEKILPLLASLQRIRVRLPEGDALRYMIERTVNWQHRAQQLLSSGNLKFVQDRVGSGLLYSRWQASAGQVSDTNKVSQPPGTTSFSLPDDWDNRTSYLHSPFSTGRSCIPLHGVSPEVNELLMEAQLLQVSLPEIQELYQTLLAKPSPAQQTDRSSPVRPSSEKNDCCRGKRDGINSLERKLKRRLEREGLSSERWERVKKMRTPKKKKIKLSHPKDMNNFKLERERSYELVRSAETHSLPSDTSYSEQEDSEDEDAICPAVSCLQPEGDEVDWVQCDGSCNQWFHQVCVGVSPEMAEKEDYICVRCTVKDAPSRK
Method in brief: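 Inhibition is measured as reduced NADH fluorescence generation from FDH coupling to formaldehyde release. Truncated KDM5BΔAP at 200 nM final acts on H3K4me3 peptide (12.5 µM in substrate mix) in pH 7.5 HEPES buffer with Tween-20, 30 min, room temperature.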
Also: nearly all actives have a fitted effect of over 70% in size.
For activity change, negative = inhibition in this document: 0% is about no effect.
Potency is read from the fitted curve at half-maximal effect; tags tell the direction and shape of the fitted curve.

SMILES | Potency | activity change, negative = inhibition
CCCn1c(NC(=O)CCOc2ccc(C)cc2)nc2ccccc21 | inactive | 
COc1ccc(N2CCN(C(=O)C3CC(=O)N(c4n[nH]c5cccc(F)c45)C3)CC2)cc1 (stereo unspecified) | inconclusive: 12.6 µM [inhibitor, partial curve] | 
CC1(COc2ccccc2)COc2ccc(C(=O)NCCc3ccccn3)cc2N1 (stereo unspecified) | active: 31.6 µM | 
Cc1ccc(-n2nnnc2N2CCN(C(=O)Nc3ccc(C)c(F)c3)CC2)cc1C | inactive | 
Cc1c(NC(=O)C2(c3ccccc3)CC2)cccc1C(=O)N1CCc2sccc2C1 | inactive | 
CCn1c(C)c(C(C)=O)c2cc(OCC(O)CN3CCCCC3)ccc21 (stereo unspecified) | inactive | 
COc1cccc(Nc2ncnc3c2cnn3-c2ccccc2)c1 | inconclusive: 39.8 µM [inhibitor, single point] | 
O=C1CCN(Cc2ccc(C(F)(F)F)cc2)CCCC(c2nc(-c3cnccn3)no2)CCN1 (stereo unspecified) | inconclusive: 35.5 µM [inhibitor, partial curve, poor fit] | 
Cc1ccc2oc(/N=C(\N)NC(=O)c3ccccc3)nc2c1 | inactive | 
N#Cc1cccc(-c2ccnc(N[C@H]3CO[C@H]4[C@@H]3OC[C@@H]4NC(=O)N3CCOCC3)n2)c1 | active: 31.6 µM | 
O=C(Oc1cc(=O)oc2c1c(=O)n1c3c(cccc23)CC1)c1ccccc1 | inconclusive: 28.2 µM [inhibitor, partial curve, poor fit] | 
c1ccc(Oc2ccccc2-c2cc(-c3cn[nH]c3)c3cncn3c2)cc1 | inconclusive: 14.1 µM [inhibitor, partial curve, poor fit] | 
CCOCCn1ccc2c(OCC(=O)NCc3ccc(C)cc3)cccc2c1=O | inconclusive: 28.2 µM [inhibitor, partial curve, poor fit] | 
Cc1c(C(=O)C(=O)Nc2cccc(F)c2)c2ccccc2n1C | inactive | 
O=C(CC1N=C2c3ccccc3N=C(SCc3cccc(Cl)c3)N2C1=O)NCc1ccc2c(c1)OCO2 (stereo unspecified) | inconclusive: 39.8 µM [inhibitor, single point] | 
COc1cc(Nc2nc(SCC(=O)c3ccc(Br)cc3)nc3ccccc23)cc(OC)c1 | inconclusive: 28.2 µM [inhibitor, partial curve, poor fit] | 
N#Cc1ccccc1CN1CCNc2nc(COc3cccc(N4CCOCC4)c3)n(Cc3ccccc3)c2C1=O | inconclusive: 39.8 µM [inhibitor, single point] | 
N#C/C(=C\c1ccc(-c2ccc(C(=O)O)cc2)o1)C(=O)Nc1ccccc1C(=O)O | inconclusive: 28.2 µM [inhibitor, partial curve, poor fit] | 
COc1ccc(-c2cc(-c3ccc(CO)cc3)cn3cncc23)cc1 | active: 3.98 µM | 
CCOc1ccc(CCNC(=O)c2cc3c(=O)oc4ccc(C)cc4c3s2)cc1OCC | inconclusive: 28.2 µM [inhibitor, partial curve, poor fit] | 
COc1ccc(-c2cn(-c3ccc(C)cc3)c(S(=O)(=O)CC(=O)Nc3ccc(F)cc3)n2)cc1 | inconclusive: 1.58 µM [inhibitor, full curve, poor fit] | 

SMILES | Potency | activity change, negative = inhibition
Cc1cc(=O)oc2c(C)c(OC(C)C(=O)NCCc3ccc(S(N)(=O)=O)cc3)ccc12 (stereo unspecified) | inconclusive: 28.2 µM [inhibitor, partial curve, poor fit] | 
COc1ccc(C(=O)N2CCC3(CC2)C(OC)C(=O)N3CC2CC2)cc1F (stereo unspecified) | inactive | 
CCc1c(C(=O)Nc2ccc3nc(C)sc3c2)cnn1-c1ccc(OC)nn1 | inactive | 
Cc1cc(CNC(=O)C2CCCCn3nnnc32)c2[nH]c(-c3ccccc3)c(C)c2c1 (stereo unspecified) | inconclusive: 12.6 µM [inhibitor, partial curve, poor fit] | 
CC(C)(C)c1ccc(OCc2ccc(C(=O)NN)o2)cc1 | inconclusive: 22.4 µM [inhibitor, partial curve, poor fit] | 
CCOc1ccccc1CN1CCC2(CCN(C(=O)c3cccc(OC)c3)CC2)Oc2ccccc21 | inconclusive: 17.8 µM [inhibitor, partial curve] | 
Cc1c(C(=O)NCc2cccc(Cl)c2)sc2ncnc(N(C)C3CCCCC3)c12 | inconclusive: 39.8 µM [inhibitor, single point] | 
CC(C)(C)C(=O)Nc1cccc(-c2cn3cccnc3n2)c1 | inconclusive: 15.8 µM [inhibitor, partial curve, poor fit] | 
Cc1nc2c3ccccc3nn2c(C)c1CCC(=O)Nc1ccc(C(N)=O)cc1 | inconclusive: 8.91 µM [inhibitor, partial curve, poor fit] | 
Cc1cccc(CSc2ncc(Cl)c(C(=O)Nc3sc4c(c3C(N)=O)CCCC4)n2)c1 |  | inconclusive: -38% [inhibitor]
COc1ccc(-c2noc([C@@H]3CCCN3C(=O)c3ccc(F)cc3Cl)n2)cc1 | inactive | 
CNC(=O)[C@@H](c1ccccc1F)N1CCC[C@H]1C(=O)NCC1CC1 | inconclusive: 28.2 µM [inhibitor, partial curve] | 
COc1cccc(CNCCNC(=O)c2nonc2N)c1 | inconclusive: 2.51 µM [inhibitor, full curve, poor fit] | 
Cc1cc(N2CCN(C(C(=O)O)c3c[nH]c4ccc(CO)cc34)CC2)nc2ccccc12 (stereo unspecified) | inconclusive: 35.5 µM [inhibitor, single point] | 
CCN1CCN(C2(C(=O)NCCC3CCCCO3)Cc3ccccc3C2)CC1 (stereo unspecified) | inconclusive: 28.2 µM [inhibitor, partial curve, poor fit] | 
COCCNC(=O)COC(=O)c1cc(-c2cccc3ccccc23)nc2ccccc12 | inactive | 
Cc1cccc(NS(=O)(=O)c2c(C)nc3sccn3c2=O)c1C | inconclusive: 7.94 µM [inhibitor, partial curve, poor fit] | 
O=C(NCc1ccccc1Cl)c1cc2c(s1)-c1ccc(Cl)cc1SC2 | inconclusive: 31.6 µM [inhibitor, partial curve, poor fit] | 
O=Cc1ccc(N2CCN(C(=O)N3CCCCC3)CC2=O)cc1 | inconclusive: 79.4 µM [inhibitor, partial curve, poor fit] | 
Cc1nc2c(C(=O)NCCCN(CC(C)C)CC(C)C)cnn2c(C)c1Cc1c(F)cccc1Cl | inconclusive: 25.1 µM [inhibitor, partial curve, poor fit] | 
COc1ccccc1-n1nc(CC(N)=O)nc1-c1ocnc1C | inconclusive: 20 µM [inhibitor, single point] | 

SMILES | Potency | activity change, negative = inhibition
COc1ccc(NC(=O)c2oc3ccc(S(=O)(=O)N4CCCCC4)cc3c2C)cc1 | inconclusive: 28.2 µM [inhibitor, partial curve, poor fit] | 
CN1C(=O)c2cccn2CC1CNC(=O)c1[nH]nc2c1COc1ccccc1-2 (stereo unspecified) | inconclusive: 31.6 µM [inhibitor, partial curve, poor fit] | 
CCc1cccc2c(C(=O)C(=O)Nc3cccc(F)c3)c[nH]c12 | inconclusive: 39.8 µM [inhibitor, single point] | 
COC(=O)c1cccc(N(CC(=O)NCC2CCCO2)C(=O)CCC(=O)Nc2cc(C)on2)c1 (stereo unspecified) | inactive | 
Cc1nn2c(c1-c1ccccc1OCc1ccccc1)N(Cc1ccc(OCC(=O)O)cc1)CCC2 | inactive | 
CCOC(=O)c1cnc(Nc2cccc(F)c2)c2ccccc12 | inconclusive: 20 µM [inhibitor, partial curve, poor fit] | 
COCC(=O)N[C@H](C)c1onc(-c2cccnc2)c1C(=O)O | inconclusive: 31.6 µM [inhibitor, single point] | 
C=CCNC(=O)/C=C/c1cccc(OC)c1 | inconclusive: 22.4 µM [inhibitor, partial curve, poor fit] | 
CCOC(=O)c1c(-c2ccccc2)oc2ccc(NS(=O)(=O)c3cc(C)c(C)cc3C)cc12 | inconclusive: 31.6 µM [inhibitor, partial curve, poor fit] | 
CC(C)CNC(=O)C1CCN(c2oc(-c3ccco3)nc2C#N)CC1 | inconclusive: 25.1 µM [inhibitor, partial curve, poor fit] | 
Cc1ccccc1NC(=O)c1ccc2c(c1)c(C)c(C)n2Cc1ccccc1 | inconclusive: 35.5 µM [inhibitor, single point] | 
O=C(CN1N=C(c2ccc(Cl)cc2)CCC1=O)NCCc1ccc(Cl)cc1 | inconclusive: 28.2 µM [inhibitor, single point] | 
COC(=O)c1cc2n(n1)CCCN(C(=O)c1cc(C)nc3ccc(C)cc13)C2 | inconclusive: 15.8 µM [inhibitor, partial curve] | 
Fc1ccc(-c2nc(CSc3nnc4c(Cl)cc(C(F)(F)F)cn34)cs2)cc1 | inconclusive: 39.8 µM [inhibitor, single point] | 
C#CCNC(=O)C[C@@H]1c2nc(NC(=O)c3ccc(F)cc3)sc2C[C@@H]2[C@](C)(CO)[C@H](O)CC[C@]21C | inconclusive: 17.8 µM [inhibitor, partial curve, poor fit] | 
C[S+](=O)([O-])NCCn1ccc2cc(OC3CCN(c4ncc(F)cn4)CC3)cnc21 | inconclusive: 35.5 µM [inhibitor, partial curve, poor fit] | 
COc1ccc2c(C)c(CC(=O)N3CCN(C(=O)C4COc5ccccc5O4)CC3)c(=O)oc2c1C (stereo unspecified) | inconclusive: 2.24 µM [inhibitor, full curve, poor fit] | 
CCn1c(CC(=O)Nc2ccccc2C)nnc1SCC(=O)Nc1ccc2ccccc2c1 | inactive | 
COc1cc(-c2ccnc3nc(CCC4CCCC4)nn23)cc(OC)c1OC | inconclusive: 15.8 µM [inhibitor, partial curve, poor fit] | 
